In PubChem BioAssay AID463173 (ICCB-Longwood Screening Facility, Harvard Medical School, 2010):
Hit rate of the full screen: of about 52,000 compounds, about 4,300 (8.3%) were called active. No stated cut-off is given here; in the data, active means survival mostly below about 52% (no sharp cut-off); inactive means mostly above about 56%. This is one part of the list.

system: DeltatarO mutant; test: S. aureus survival, RN4220 and DeltatarO strains – OD600, teichoic acid synthesis inhibitors, primary screen (AID 463173); conditions: S. aureus RN4220 wild type/DeltatarO growth, OD600, 18 h, stronger effect = lower value, screened at 18.75 µg/mL (by protocol)

Compound	survival
Cc1ccc2c(c1)-c1c(cnc3cc(-c4ccccc4)nn13)CO2	inactive: 69%
CCCCc1ccc(NC(=O)c2ccc(=O)n(Cc3cccc(C)c3)c2)cc1	inactive: 78%
CN(C)CCNC(=O)c1ccc2c(=O)n3c(nc2c1)CCCCC3	inactive: 125%
COc1ccc(-c2nc(C)c(CCNS(=O)(=O)c3cc(C)c(C)cc3C)s2)cc1	inactive: 72%
O=C(NCCc1ccccc1)c1nnc(Cc2cccc(F)c2)o1	inactive: 106%
COc1ccc(-c2nc(CN3CCC(C(=O)NCc4ccccc4)CC3)c(C)o2)cc1OC	inactive: 104%
Cn1nnc2c(N3CCN(c4ccccc4Cl)CC3)ncnc21	inactive: 69%
COc1ccc(-c2c3c(=O)n(C)c(=O)n(C)c3c3c(C)nc4ccccc4n23)cc1	inactive: 79%
CC(C)(C)c1ccc(-c2nc(SCCCOc3ccccc3)n3[nH]c(=O)cc3n2)cc1	inactive: 70%
CCOC(=O)Cn1c(=O)n(-c2ccccc2OC)c2nc(-c3cccc(F)c3)nc(C(N)=O)c21	inactive: 64%
Cc1ccc(-c2nnc(SCc3cccc(C#N)c3)o2)cc1	inactive: 62%
CCOC(=O)c1ccccc1NC(=O)N(C(C)C)C1CCN(C(C)=O)CC1	inactive: 73%
CCOC(=O)C1CCN(C(=O)Cn2c(=O)oc3cc(S(=O)(=O)N4CCC(C)CC4)ccc32)CC1	inactive: 133%
Cc1ccc(Cn2nnnc2CN2CCC(NC(=O)C(C)(C)C)CC2)cc1	inactive: 81%
CC(=O)N1CCc2c(sc3c2c(=O)n(CCc2ccccc2)c(=O)n3Cc2ccc(Cl)cc2)C1	inactive: 70%
Cc1ccccc1NC(=O)CSc1nc2c(c(=O)n(C)c(=O)n2C)n1Cc1ccccc1F	inactive: 56%
O=C(C1CCCCC1)N1CCN(c2ncnc3c2cnn3-c2ccccc2)CC1	inactive: 101%
Cc1cc2c(cc1S(=O)(=O)N1CCCCC1)OCC(=O)N2	inactive: 106%
CCOCCCNc1ncnc2c1cnn2-c1ccc(C)c(C)c1	inactive: 84%
COCCNC(=O)Cn1c(=O)n(CCCCCC(=O)NCc2ccc3c(c2)OCO3)c(=O)c2sccc21	inactive: 79%
O=C(CCS(=O)(=O)c1cccs1)Nc1ccc(C(=O)Nc2ccccc2F)cc1	inactive: 135%
CCSc1ncc(Cl)c(C(=O)Nc2ccc(S(=O)(=O)N3CCCCC3)cc2)n1	inactive: 87%

Compound	survival
CCOc1ccc(NC(=O)Cn2c(=O)n(-c3cccc(OC)c3)c(=O)c3c4c(sc32)CCCC4)cc1	inactive: 95%
COc1ccc(Cl)cc1NS(=O)(=O)c1ccc2c(c1)NC(=O)CC(=O)N2	inactive: 88%
CCCCN(CCCC)CCNC(=O)c1cn(CC)c2ccc(S(=O)(=O)N(C)C3CCCCC3)cc2c1=O	inactive: 144%
Cc1ccc(C)c(Cn2cc(S(=O)(=O)c3ccc(Cl)cc3)c(=O)c3cc(F)ccc32)c1	inactive: 71%
CCc1ccc(NC(=O)c2ccc3[nH]c(C)c(C)c3c2)cc1	inactive: 129%
CCN(Cc1ccccc1)C(=O)CN(c1ccc(OC)cc1)S(=O)(=O)c1c(C)nn(C)c1C	inactive: 69%
O=C1OC(c2ccccc2)=C/C1=C/c1ccco1	inactive: 95%
CCCNC(=O)c1ccc2nc(CCc3ccccc3)oc2c1	inactive: 78%
Cc1cc(C)cc(S(=O)(=O)c2cn(C)c3cc(N4CCCC4)c(F)cc3c2=O)c1	inactive: 72%
CCc1ccc(NC(=O)CSC2=Nc3ccccc3C3=NC(CCC(=O)NCc4ccco4)C(=O)N23)cc1 (stereo not drawn)	inactive: 93%
COc1ccc(C(=O)n2nc(-c3ccco3)nc2NCc2cccs2)cc1OC	inactive: 91%
CCc1ccccc1NC(=O)N(C)CCc1c(C)nn(C)c1C	inactive: 107%
Cc1ccc(-c2nc3sc(CCNC(=O)c4ccc(C)c(C)c4)c(C)n3n2)cc1	inactive: 72%
COc1ccc(-c2nc(CSc3nncn4c3cc3sccc34)c(C)o2)cc1OC	inactive: 81%
O=C(CN1C(=O)CCc2cc(S(=O)(=O)N3CCOCC3)ccc21)NCc1ccccc1	inactive: 73%
CCNc1nc(OC)nc(Oc2ccc(=O)[nH]n2)n1	inactive: 63%
CC(C)(C)c1ccc(S(=O)(=O)N2CCN(Cc3noc(CCC(=O)N4CCCCC4)n3)CC2)cc1	inactive: 67%
CCc1cnc2c(c1SCC(=O)N1CCCCC1)c(=O)n(C)c(=O)n2C	inactive: 89%
CCCCOc1ccc(C(=O)NCCS(=O)(=O)N2CCN(c3ccc(F)cc3)CC2)cc1	inactive: 91%
CCOc1ccc(CNCc2c(C(=O)O)n(Cc3ccccc3F)c3cc(OC)ccc23)cc1	inactive: 92%
CCC(=O)N1CCc2cc(Br)cc(S(=O)(=O)N3CCC(C(=O)Nc4ccc(OC)cc4)CC3)c21	active: 8%
COc1ccc(-c2cc(C(=O)O)n(Cc3ccccc3)n2)cc1	inactive: 76%

Compound	survival
O=C(CSc1nc2ccccc2nc1Cc1ccccc1)NCc1ccccc1Cl	inactive: 113%
Cc1cc(C)c(NC(=O)Cn2c(=O)n(CC(=O)NCc3ccccc3Cl)c(=O)c3sccc32)c(C)c1	inactive: 171%
CC(=O)c1cc2c(cc1N/C(=N/S(=O)(=O)c1ccc(C)cc1)c1ccccc1)OCO2	inactive: 74%
COC(=O)C(NC(=O)CC(C)C)(Nc1nc2c(s1)CCCC2)C(F)(F)F (stereo not drawn)	inactive: 120%
Cc1cccc2nc(-c3ccco3)c(Nc3ccc4c(c3)OCO4)n12	inactive: 79%
CCOC(=O)C1CCCN(S(=O)(=O)c2ccc(F)c(C(=O)Nc3ccc(F)c(F)c3)c2)C1 (stereo not drawn)	inactive: 77%
Cc1nc2scc(-c3cccs3)c2c(=O)o1	inactive: 87%
CCCCN(CC)CCCNC(=O)c1sc2nc(C)cc(C)c2c1-n1cccc1	inactive: 113%
CCc1ccc(NC(=O)c2ccc3c(O)c(S(=O)(=O)c4ccc(Cl)cc4)c(=O)[nH]c3c2)cc1	inactive: 75%
Cc1ccc(S(=O)(=O)N(CC(O)Cn2c3ccccc3c3ccccc32)c2cccc(C(N)=O)c2)cc1 (stereo not drawn)	active: 38%
Cc1ccc(C)c(NC(=O)CN2C(=O)CCc3ccccc32)c1	inactive: 81%
CCN(CC)Cc1nc2ccccc2[nH]1	inactive: 78%
CCOc1ccc(CCNC(=O)Cn2nc(C)n3c(cc4occc43)c2=O)cc1OCC	inactive: 85%
Cc1ccccc1C(=O)c1cccn1CC(=O)NCc1ccccc1	inactive: 103%
CCn1c2ccccc2c2nnc(SCC(=O)O)nc21	inactive: 54%
Cc1ccccc1CNC(=O)c1cnc2sc(N3CCOCC3)nn2c1=O	inactive: 68%
Cc1ccc(NC(=O)CN(C)S(=O)(=O)c2ccc3c(c2)n(C)c(=O)c(=O)n3C)cc1C	inactive: 87%
Cc1ccc(-c2nc3c4ccccc4n(CC(=O)N4CCN(c5ccccc5F)CC4)c(=O)n3n2)cc1	inactive: 78%
Cc1ccc(-n2nnnc2CNC(=O)C(C)(C)C)cc1C	active: 46%
O=C(CS(=O)CC(=O)Nc1ccc2c(c1)OCCO2)Nc1ccc(Cl)cc1 (stereo not drawn)	inactive: 95%
Cc1nc(SC(C)C(=O)Nc2ccccc2C)cc(-c2ccccc2)n1 (stereo not drawn)	inactive: 60%
COc1ccc(CNC(=O)c2cc(-c3ccc(OC)cc3)on2)cc1	inactive: 210%

Compound	survival
CC(=O)Nc1ccc(S(=O)(=O)N2CCC(n3c(C(F)(F)F)nc4cccnc43)CC2)cc1	inactive: 86%
Cc1ccc(CCNC(=O)CCCn2nc(C)c3c(C)n(-c4ccccc4)nc3c2=O)cc1	inactive: 87%
COc1cccc(-c2cc(C(=O)Nc3cc(Cl)ccc3O)on2)c1	inactive: 97%
CC(C)Oc1ccc(CNC(=O)c2cc3ccccn3n2)cc1	inactive: 90%
O=C(CCn1c(=O)oc2ccccc21)n1c(=O)oc2ccccc21	inactive: 108%
O=c1c2cc3c(cc2n(Cc2ccc(Cl)cc2)c(=O)n1Cc1nc(-c2ccccc2)no1)OCO3	inactive: 86%
Cc1ccc(-n2c(Cc3ccccc3)nnc2SCc2nc(-c3cccs3)no2)cc1	inactive: 65%
Cc1ccc2c(c1)c1c(c(=O)n(-c3cccc(Cl)c3)c(=O)n1CC(=O)Nc1c(C)cccc1C)n2C	inactive: 78%
CCOC(=O)c1ccccc1NC(=O)CSc1nc2cn(CC)nc2c(=O)n1Cc1ccc(Cl)cc1	inactive: 57%
CCN(CC)C(=O)n1c(Cc2ccccc2)nc2ccccc21	inactive: 86%
Cc1ccc(CN2CCSc3ccc(C(=O)N4CCN(c5ccccc5)CC4)cc32)cc1	inactive: 63%
O=C(CC1N=C2c3ccccc3N=C(SCc3ccc(Cl)cc3)N2C1=O)NCc1cccs1 (stereo not drawn)	inactive: 75%
COc1ccc(N2CCN(C(=O)C3CCN(S(=O)(=O)c4cccs4)CC3)CC2)cc1	inactive: 118%
CC(=O)c1ccc(S(=O)(=O)N2CCn3cccc3C2c2ccc(C)cc2)cc1 (stereo not drawn)	inactive: 73%
CCOC(=O)Cn1c(=O)n(CC2CCCO2)c2nc(-c3ccc(C)cc3)nc(C(N)=O)c21 (stereo not drawn)	inactive: 67%
CC(C)c1ccc(C2=CC(c3ccc(C(C)C)cc3)n3nnnc3N2)cc1 (stereo not drawn)	inactive: 67%
Cc1ccc2nc3c(cc(C(=O)NCC4CCCO4)c(=N)n3C(C)C)c(=O)n2c1 (stereo not drawn)	inactive: 67%
COc1ccccc1/C=C/c1nc2ccccc2n1C(C)C	active: 8%
COc1ccccc1NC(=O)C(=O)NCC(c1ccc2c(c1)OCO2)N1CCOCC1 (stereo not drawn)	inactive: 75%
COc1ccc(Cl)cc1NC(=O)Cc1ccc(NC(=O)N2CCCCc3ccccc32)cc1	inactive: 71%
O=C(Nc1cccc(Cl)c1)c1cnc2sc(N3CCCC3)nn2c1=O	inactive: 85%
CN1C(=O)Cc2cc(S(=O)(=O)N3CCN(c4ccccc4F)CC3)ccc21	inactive: 107%
